From PubChem BioAssay AID2675 (National Center for Advancing Translational Sciences (NCATS), 2010)
The whole screen tested about 280,000 compounds, of which about 100 (0.036%) were called active. Inconclusive results, whose numbers are uncertain, are shown with a selection of clear calls. The call rests on the fitted dose curve; in most records, active means well fitted inhibition curve with a large enough effect in the signal ratio, with a control signal flat (not every such curve was filed as active); inconclusive means small, poorly fitted or top-dose-only effect, or effect the other way, or a change in a side signal; inactive means no such curve, though single readings can be large or run the other way; the % refers to the signal ratio. Potencies of inconclusive entries are doubtful fits and often do not repeat. A note “side channel” means that the fit belongs to a control or component signal, not to the main read-out.

molecular target: Muscleblind-like protein 1 (Homo sapiens) (UniProt Q9NR56); assay: qHTS Assay for Inhibitors of MBNL1-poly(CUG) RNA binding; details: TR-FRET MBNL1-His/biotin-(CUG)12 binding, 665/545 ratio; activity change, negative = inhibition: at 57.5 µM (top of the series)
How it was run: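 TR-FRET between His-tagged MBNL1 and biotin-(CUG)12 RNA, detected with Tb anti-His antibody (0.055 ng/ul) and streptavidin-XL665 (5 nM), 60 min at room temperature. Compounds titrated 92 nM to 58 uM; 665/545 nm ratio normalized to buffer and complex controls.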
On the % scale 0 is the no-effect control and ±100 the full control effect; potency means the concentration at half of the fitted maximal effect; tags describe the fitted curve by direction and shape or compound fluorescence and quenching.

UniProt Q9NR56, sequence (Q9NR56 whole entry, looked up): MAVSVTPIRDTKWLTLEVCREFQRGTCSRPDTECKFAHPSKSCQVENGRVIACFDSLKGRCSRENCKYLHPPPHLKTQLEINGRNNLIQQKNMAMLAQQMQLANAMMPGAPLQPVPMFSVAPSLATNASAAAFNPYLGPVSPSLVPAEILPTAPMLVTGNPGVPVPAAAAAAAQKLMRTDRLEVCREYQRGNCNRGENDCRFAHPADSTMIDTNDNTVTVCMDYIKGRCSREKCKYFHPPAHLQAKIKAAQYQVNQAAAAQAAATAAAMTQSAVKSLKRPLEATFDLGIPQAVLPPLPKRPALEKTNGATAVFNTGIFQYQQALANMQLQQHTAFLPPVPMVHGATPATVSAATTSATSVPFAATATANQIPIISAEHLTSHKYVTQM

Row | SMILES | Potency | activity change, negative = inhibition
1 | CC1=C(C(=O)OC(C)C)C(c2ccsc2)NC(=O)N1C (stereo not drawn) | inconclusive: 5.62 µM [quencher, side channel, partial curve] | 
2 | COc1ccccc1N1CC=C(c2cccc([N+](=O)[O-])c2)NC1=O | inconclusive: 15.8 µM [quencher, side channel, partial curve] | 
3 | Cc1ccc(S(=O)(=O)Oc2cccc(/C=N/n3cnnc3)c2)cc1 | inconclusive: 1.12 µM [quencher, side channel, single point] | 
4 | CC(C)N1CCc2c(sc(NC(=O)c3ccc([N+](=O)[O-])o3)c2C(N)=O)C1 | inconclusive: 39.8 µM [quencher, single point] | 
5 | Cc1cc(O)c2c(-c3ccccc3)cc(=O)oc2c1 | inconclusive: 15.8 µM [quencher, side channel, partial curve] | 
6 | CN(C)C=NC(=O)c1ccc([N+](=O)[O-])c(CS(=O)(=O)c2ccc(Cl)cc2)c1 | inconclusive: 15.8 µM [quencher, side channel, partial curve] | 
7 | COc1ccccc1NC(=O)C1CCN(C(=O)c2ccc(C(C)(C)C)cc2)CC1 |  | inactive: 1.38%
8 | CCOC(=O)CC(=O)CSc1nc2c(cc1C#N)CCCCC2 | inconclusive: 14.1 µM [quencher, side channel, partial curve] | 
9 | COc1ccc2c(c1OC)C(=O)OC2Nc1nc(-c2cc3cc(Br)ccc3oc2=O)cs1 (stereo not drawn) | inconclusive: 12.6 µM [quencher, partial curve] | 
10 | O=C(CNC(=O)c1[nH]cnc1C(=O)NC(c1ccccc1)c1ccccc1)OCc1ccccc1 |  | inactive: 1.75%
11 | O=S(=O)(N/N=C\c1c(F)cccc1Cl)c1ccc(Cl)cc1 |  | inactive: -0.912%
12 | Cc1cc(C)nc(Nc2cccc(C(F)(F)F)c2)n1 |  | inactive: 5.95%
13 | Cc1cc(C)cc(-n2c3nc4ccccc4nc3c3c(=O)n(Cc4ccco4)cnc32)c1 | inconclusive: 14.1 µM [quencher, side channel, partial curve] | 
14 | COc1ccc(N/C=C2/CCCCC2=O)cc1 | inconclusive: 7.08 µM [quencher, side channel, partial curve] | 
15 | C/C(CCc1ccc2c(c1)OCO2)=N\NC(=O)c1ccccc1 |  | inactive: 10%
16 | CC(=O)N1CCN(Cc2cc(=O)n3cc(Cl)c(C)c(Cl)c3n2)CC1 | inconclusive: 14.1 µM [quencher, side channel, partial curve] | 
17 | COCCCNC(=O)c1c(N)n(-c2cccc(S(N)(=O)=O)c2)c2nc3ccccc3nc12 | inconclusive: 17.8 µM [quencher, side channel, partial curve] | 
18 | Cc1onc(-c2ccccc2)c1C(=O)N/N=C/c1c(F)cccc1Cl | inconclusive: 0.794 µM [fluorescent, side channel, single point] | 
19 | COc1cccc(OC)c1OCC(O)CN1CCN(c2ccccc2F)CC1 (stereo not drawn) |  | inactive: 0.457%

Row | SMILES | Potency | activity change, negative = inhibition
20 | COc1cc(-c2cc(C(=O)NCc3ccc(S(N)(=O)=O)cc3)c3ccccc3n2)cc(OC)c1OC | inconclusive: 15.8 µM [quencher, side channel, partial curve] | 
21 | COc1ccc(/C=C2\Sc3ccc(C(=O)NCCCN4CCCC4)cc3N(C)C2=O)cc1OC | inconclusive: 22.4 µM [quencher, side channel, partial curve] | 
22 | CC(C)(C)c1cc[n+](-c2[nH]c(=O)sc2/C=N/NC([S-])=Nc2ccccc2)cc1 | inconclusive: 7.94 µM [quencher, side channel, partial curve] | 
23 | Cc1sc(C(C2C(=O)CC(C)(C)CC2=O)C2C(=O)CC(C)(C)CC2=O)cc1[N+](=O)[O-] | inconclusive: 35.5 µM [quencher, side channel, partial curve] | 
24 | O=C(NN1C(=O)CSC1=S)C(=O)NN1C(=O)CSC1=S |  | inactive: -25.6%
25 | CC(=O)N1CCN(c2ccc(NC(=O)c3ccc(C)c([N+](=O)[O-])c3)cc2)CC1 | inconclusive: 11.2 µM [quencher, side channel, partial curve] | 
26 | COc1cccc2c1OCC(C(=O)Nc1nccs1)=C2 | inconclusive: 25.1 µM [quencher, side channel, partial curve] | 
27 | COCCNc1nc2ccccc2nc1NS(=O)(=O)c1ccc(C)cc1C |  | inactive: 5.2%
28 | CCn1c(C)cc(=S)c2ccccc21 | inconclusive: 17.8 µM [quencher, side channel, partial curve] | 
29 | COc1ccc(-c2cn3cccnc3n2)cc1NC(=O)c1cccs1 | inconclusive: 6.31 µM [quencher, side channel, partial curve] | 
30 | CC(=O)Oc1ccc(Cn2cnc3cc4ccccc4cc32)cc1 | inconclusive: 4.47 µM [quencher, side channel, full curve] | 
31 | O=C(O)c1ccc(N/N=C/C=C/c2ccccc2)cc1 | inconclusive: 20 µM [quencher, side channel, single point] | 
32 | O=C(c1ccccc1)N1CCN(c2ccc([N+](=O)[O-])c(N3CCOCC3)c2)CC1 | inconclusive: 39.8 µM [quencher, side channel, partial curve, poor fit] | 
33 | O=C(c1ccc2c3c(cccc13)CC2)C1CCCN(C(=O)c2cc[n+]([O-])cc2)C1 (stereo not drawn) | inconclusive: 14.1 µM [quencher, side channel, partial curve] | 
34 | O=C(Cn1nc(-c2ccc(Cl)cc2)ccc1=O)NCC1COCCO1 (stereo not drawn) | inconclusive: 25.1 µM [quencher, side channel, partial curve] | 
35 | CN(C)C=Nc1ccc2nn(-c3ccccc3)nc2c1 | inconclusive: 10 µM [quencher, side channel, partial curve] | 
36 | COc1ccc(S(=O)(=O)CC(=O)c2cc3cccc(C)c3oc2=O)cc1 | inconclusive: 14.1 µM [quencher, side channel, partial curve] | 
37 | Cc1cccc(Sc2ccc([N+](=O)[O-])cn2)c1 | inconclusive: 17.8 µM [quencher, side channel, partial curve] | 
38 | COc1ccc(S(=O)(=O)N2CCN(c3ccc(C)cc3C)CC2)cc1OC |  | inactive: -3.33%
